{"source": "PubChem BioAssay AID1476", "about": "(National Center for Advancing Translational Sciences (NCATS), 2009)", "note": "About 4,500 (2.2%) of roughly 200,000 compounds were called active. This list was built around the results that the source calls inconclusive (neither active nor inactive); the mix of calls is not that of the screen. The call rests on the fitted dose curve; in most records, active means well fitted inhibition curve with a large enough effect; inconclusive means small, poorly fitted or top-dose-only effect, or effect the other way; inactive means flat fitted curve, though single readings scatter. Where the call is inconclusive, the potency comes from a doubtful curve fit. Potency means the concentration at half of the fitted maximal effect; tags describe the fitted curve by direction and shape.", "data": [{"molecular_target": "Cruzipain (Trypanosoma cruzi) (UniProt P25779)", "sequence (P25779 whole entry, looked up)": "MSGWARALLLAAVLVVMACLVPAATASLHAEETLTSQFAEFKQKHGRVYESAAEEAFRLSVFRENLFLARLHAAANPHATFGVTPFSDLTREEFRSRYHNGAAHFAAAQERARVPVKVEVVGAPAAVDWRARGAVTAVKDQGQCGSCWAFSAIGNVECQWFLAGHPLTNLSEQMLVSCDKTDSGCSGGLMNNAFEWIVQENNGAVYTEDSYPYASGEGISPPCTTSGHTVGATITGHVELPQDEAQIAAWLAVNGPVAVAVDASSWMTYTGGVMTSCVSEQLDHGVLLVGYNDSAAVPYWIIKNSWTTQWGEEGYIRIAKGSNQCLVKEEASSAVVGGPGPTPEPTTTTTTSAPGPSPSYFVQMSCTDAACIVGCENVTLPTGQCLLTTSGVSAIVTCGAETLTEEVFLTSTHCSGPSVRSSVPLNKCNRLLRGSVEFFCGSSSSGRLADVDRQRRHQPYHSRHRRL", "assay": "qHTS Assay for Promiscuous and Specific Inhibitors of Cruzain (without detergent); further: nearly all actives have a fitted effect of over 40% in size;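 on max response, negative = inhibition: plate controls were enzyme without inhibitor for no effect and buffer without enzyme for full effect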", "conditions": "purified cruzain, Z-FR-AMC fluorescence, no detergent", "in_short": "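Detergent-free condition (0.00005% Triton X-100) in acetate buffer pH 5.5 with DTT. 1.5 nM enzyme and compound were pre-mixed 15 min, then 2 uM Z-FR-AMC substrate added; reaction progress from fluorescence change between first and third reads (60 s).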", "values": [{"compound": "Nc1ncnc2nc(-c3ccc(C[P+](c4ccccc4)(c4ccccc4)c4ccccc4)cc3)[nH]c12", "max response, negative = inhibition": "inactive: -9.55%"}, {"compound": "CC(C)Sc1nc2c(c(=O)n(C)c(=O)n2C)n1Cc1ccc(Cl)cc1", "Potency": "inconclusive: 39.8 µM [activator, single point]"}, {"compound": "CCn1nc(C)c(NC(=O)/C=C/c2ccc(OC)c(COc3ccc(Cl)cc3Br)c2)c1C", "max response, negative = inhibition": "inactive: 3.47%"}, {"compound": "COC(=O)c1cc2occc2n1Cc1ccc(F)cc1Cl", "max response, negative = inhibition": "inactive: -8.91%"}, {"compound": "Cc1c(C(=O)N2CCc3ccccc3C2)oc2ccc(S(=O)(=O)N3CCCCCC3)cc12", "Potency": "inconclusive: 39.8 µM [inhibitor, single point]"}, {"compound": "Cc1ccc(CSC2=Nc3ccccc3C3=NC(CCC(=O)NCCc4ccccc4)C(=O)N23)cc1", "note": "(configuration not stated)", "max response, negative = inhibition": "inactive: 25.4%"}, {"compound": "O=C(CC(c1cccs1)N1Cc2ccccc2C1=O)Nc1ccccc1F", "note": "(configuration not stated)", "max response, negative = inhibition": "inactive: 0.0893%"}, {"compound": "Cc1c(C(=O)N2CCN(C(=O)c3ccco3)CC2)sc2nc(-c3ccc(F)cc3)cn12", "Potency": "inconclusive: 31.6 µM [activator, single point]"}, {"compound": "CCCCCCCCCCCCCCCCOC[C@@H](COP(=O)([O-])OCC[N+](C)(C)C)OC(C)=O", "Potency": "inconclusive: 39.8 µM [activator, single point]"}, {"compound": "O=C(N/N=C/c1ccc2cccc(OCc3ccccc3)c2n1)c1ccc(Cl)cc1", "Potency": "inconclusive: 39.8 µM [inhibitor, single point]"}, {"compound": "Cc1ccc2nc(NC(=O)c3ccc4ncsc4c3)sc2c1", "Potency": "inconclusive: 39.8 µM [activator, single point]"}, {"compound": "Cc1ccc(Nc2nc(-c3ccc(S(=O)(=O)N4CCOCC4)cc3)cs2)cc1Cl", "Potency": "inconclusive: 39.8 µM [inhibitor, single point]"}, {"compound": "CCN(C(=O)COC(=O)c1cc(-c2cccc3ccccc23)nc2ccccc12)C1CCS(=O)(=O)C1", "note": "(configuration not stated)", "Potency": "inconclusive: 25.1 µM [activator, single point]"}, {"compound": "CCOC(=O)c1[nH]c2ccc(OC)cc2c1NC(=O)c1cccc(OC)c1", "Potency": "inconclusive: 39.8 µM [activator, single point]"}, {"compound": "CCOc1ccc(/C=C/C(=O)NCCc2ccc(OC)c(OC)c2)cc1", "Potency": "inconclusive: 39.8 µM [activator, single point]"}, {"compound": "COC(=O)c1c(NC(=O)C2c3ccccc3Oc3ccccc32)sc2c1CCC(C)C2", "note": "(configuration not stated)", "max response, negative = inhibition": "inactive: -23.2%"}, {"compound": "Nc1nonc1-c1nc2ccccc2n1Cc1ccc(Br)cc1", "max response, negative = inhibition": "inactive: -3.76%"}, {"compound": "CCCCC(CC)C(=O)NCC(C)NC(=O)C(CC)CCCC", "note": "(configuration not stated)", "Potency": "inconclusive: 25.1 µM [activator, single point]"}, {"compound": "N#CCCn1cc(C(CC(=O)c2ccc(Br)cc2)C(=O)O)c2ccccc21", "note": "(configuration not stated)", "Potency": "inconclusive: 39.8 µM [activator, single point]"}, {"compound": "Cc1ccc(-n2cc(C(=O)c3ccc4ccccc4c3O)cn2)cc1", "Potency": "inconclusive: 25.1 µM [inhibitor, single point]"}, {"compound": "CCN(CC)c1ccc(NC(=O)COC(=O)/C=C/c2nc3ccccc3s2)cc1", "Potency": "inconclusive: 39.8 µM [inhibitor, single point]"}, {"compound": "COc1ccc(-c2noc(-c3ccccc3Cl)n2)cc1OC", "Potency": "inconclusive: 39.8 µM [activator, single point]"}, {"compound": "Cc1ccccc1C(=O)Nc1cccc(C#N)c1", "max response, negative = inhibition": "inactive: -7.37%"}, {"compound": "O=C(Nc1nc2ccccc2s1)c1cc2c(s1)-c1ccccc1OC2", "Potency": "active: 12.6 µM"}, {"compound": "CCOc1ccccc1Nc1ccc(N)cc1S(=O)(=O)O", "max response, negative = inhibition": "inactive: 9.88%"}, {"compound": "COC(=O)c1c(-c2cc(OC)c(OC)c(OC)c2)c2ccc(OCc3ccccn3)cc2c(=O)n1-c1ccc(N)cc1", "Potency": "inconclusive: 20 µM [activator, partial curve]"}, {"compound": "O=C(CSc1c2c(nc3ccccc13)CCC2)Nc1ccc(F)cc1F", "max response, negative = inhibition": "inactive: -8.41%"}, {"compound": "CCOC(=O)c1[nH]c(C)c(CCC(=O)NCc2cccc(Cl)c2)c1C", "max response, negative = inhibition": "inactive: -5.41%"}, {"compound": "COc1ccc(Cn2c(=O)c3oc4ccccc4c3n(Cc3ccccc3)c2=O)cc1", "max response, negative = inhibition": "inactive: -0.873%"}, {"compound": "CCOC(=O)c1c(NC(=O)C2CCCO2)sc(C(=O)OC(C)(C)C)c1C", "note": "(configuration not stated)", "Potency": "inconclusive: 25.1 µM [activator, partial curve]"}, {"compound": "Cc1ccc(S(=O)(=O)N2CCC(C(=O)Nc3cc(C)ccc3C)CC2)cc1", "max response, negative = inhibition": "inactive: 10.8%"}, {"compound": "COc1ccccc1OCC(O)Cn1c(=N)n(Cc2ccccc2)c2ccccc21", "note": "(configuration not stated)", "Potency": "inconclusive: 3.98 µM [inhibitor, single point]"}, {"compound": "CCOC(=O)N1CCN(C(=O)C2CCN(S(=O)(=O)c3ccc(Br)s3)CC2)CC1", "Potency": "inconclusive: 39.8 µM [activator, single point]"}, {"compound": "Cc1cccc(NC(=O)CSc2nc3c(oc4ccccc43)c(=O)n2-c2ccccc2)c1C", "Potency": "inconclusive: 39.8 µM [inhibitor, single point]"}, {"compound": "CCOC(=O)C1=C(C)NC(C)=C(C(=O)OCC)C1C(=O)OCC(=O)N1CCc2ccccc2C1", "Potency": "inconclusive: 31.6 µM [activator, partial curve]"}, {"compound": "Cc1ccccc1CN1C(=O)c2ccccc2Sc2ccc(C(=O)N3CCOCC3)cc21", "Potency": "inconclusive: 39.8 µM [activator, single point]"}, {"compound": "COC(=O)c1ccc(C(=O)OC)c(-n2c(=O)c3ccccc3c3ccccc3c2=O)c1", "Potency": "inconclusive: 39.8 µM [activator, single point]"}, {"compound": "N#CC1=C(N)NC(SCc2ccc(Cl)cc2)=C(C#N)C12CCCCC2", "Potency": "inconclusive: 25.1 µM [inhibitor, single point]"}, {"compound": "Cc1nn2c(NCCCN3CCOCC3)c3c(nc2c1-c1ccccc1)CCC3", "max response, negative = inhibition": "inactive: -4.79%"}, {"compound": "COc1cccc(CNC(=O)c2ccc3oc(=O)n(Cc4ccccc4)c3c2)c1", "max response, negative = inhibition": "inactive: 4.21%"}, {"compound": "COc1ccccc1NS(=O)(=O)c1ccc2oc(SCc3ccc(C#N)cc3)nc2c1", "Potency": "inconclusive: 31.6 µM [inhibitor, single point]"}, {"compound": "O=[N+]([O-])c1ccc(-c2cn(-c3ccccc3)c(=S)[nH]2)cc1", "Potency": "inconclusive: 25.1 µM [inhibitor, single point]"}]}]}
